Some of the results follow. The energies were worked out here from pooled read counts, against the library average; single values are noisy.
molecular target: T1, Pho4 (S. cerevisiae) (UniProt P07270); assay: relative binding free energy (BET-seq); higher = weaker binding; settings: reference: library average
T1 sequence: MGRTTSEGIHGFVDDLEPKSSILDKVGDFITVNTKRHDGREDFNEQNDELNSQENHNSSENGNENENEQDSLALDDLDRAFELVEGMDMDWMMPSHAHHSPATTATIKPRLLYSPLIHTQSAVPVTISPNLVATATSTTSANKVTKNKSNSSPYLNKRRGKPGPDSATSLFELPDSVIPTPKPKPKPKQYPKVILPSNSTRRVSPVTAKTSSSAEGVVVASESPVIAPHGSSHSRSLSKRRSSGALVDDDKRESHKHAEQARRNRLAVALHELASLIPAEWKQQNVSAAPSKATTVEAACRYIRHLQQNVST

Row | Sequence | relative binding free energy [kcal/mol]
1 | TTTGACACGTGGAATA | 0.04
2 | ATAGTCACGTGGTGCC | 0.17
3 | TGGGGCACGTGTCGGG | -0.14
4 | ATTTGCACGTGGCTGT | -0.08
5 | TATTTCACGTGTAATC | 0.35
6 | TTAAGCACGTGGGTGG | -0.19
7 | TTTACCACGTGTTAAT | -0.04
8 | AATCTCACGTGTTGTT | 0.16
9 | GTGGTCACGTGGTCAC | 0.11
10 | GGAGTCACGTGCGGGG | 0.05
11 | GGTATCACGTGTACTT | 0.16
12 | TTTTACACGTGATAAT | 0.36
13 | TGCGTCACGTGAGAGA | 0.32
14 | TATTCCACGTGTTTAA | 0.05
15 | TTATGCACGTGTGTAA | 0
16 | TGTCACACGTGGCTGG | -0.08
17 | ATGTACACGTGCTTTT | -0.15
18 | AGGGTCACGTGAGTGT | 0.3
19 | CGTTACACGTGGTGGC | 0.12
20 | TGGTTCACGTGGGCGA | 0.1
21 | CGGGGCACGTGCGTCG | -0.24
22 | TGTGACACGTGCTTGA | -0.04
23 | GGTGGCACGTGGCATC | -0.08

Row | Sequence | relative binding free energy [kcal/mol]
24 | TTTTACACGTGACGTT | 0.25
25 | GAAGGCACGTGGGTCG | -0.15
26 | AGGGTCACGTGAGTAC | 0.15
27 | GTGTTCACGTGGCTTG | 0.2
28 | GATAGCACGTGCCGGG | 0
29 | GTTAGCACGTGAACGT | 0.3
30 | AGGAACACGTGGTGTC | -0.06
31 | AGCGACACGTGAGGTT | 0.33
32 | TTTATCACGTGTTATC | 0.17
33 | AATTACACGTGGTGTA | 0.01
34 | TGTAGCACGTGAATTG | 0.1
35 | ACGTGCACGTGAGGTT | 0.13
36 | GGCGCCACGTGAGGAG | 0.12
37 | TATCGCACGTGTCGTG | -0.03
38 | GAGATCACGTGAGTAG | 0.47
39 | TGGCCCACGTGGGGCG | -0.11
40 | TTGGTCACGTGCTAAT | 0.04
41 | GGTAGCACGTGGTAGA | -0.05
42 | CCGTGCACGTGGGTGT | -0.17
43 | CGGTTCACGTGTGCAG | 0.12
44 | TATTACACGTGTGAAA | 0.24
45 | GGTCGCACGTGTGTGC | 0.01
46 | GTGTACACGTGGAATG | 0.19

Row | Sequence | relative binding free energy [kcal/mol]
47 | GGGTACACGTGAATAA | 0.34
48 | TGTAACACGTGTGTAT | -0.03
49 | ACAAGCACGTGGATGG | 0
50 | TGGGGCACGTGATCGC | -0.07
51 | GTGCACACGTGCGGTT | 0.07
52 | AGCGGCACGTGTAGGC | 0.09
53 | GTAGGCACGTGGCAGG | -0.21
54 | TACTGCACGTGGTTGT | 0.05
55 | GTGTGCACGTGATTCG | -0.03
56 | CGTTCCACGTGTGAGG | 0.21
57 | AAGTACACGTGCGTGT | 0.06
58 | TATGACACGTGAAGAG | 0.38
59 | GGAGTCACGTGTCCGG | 0.09
60 | AGGATCACGTGTTTAA | 0.26
61 | TGAAACACGTGTGTGC | 0.07
62 | TTGATCACGTGGGGTT | -0.12
63 | TTTTTCACGTGGACAT | 0.18
64 | GTTTACACGTGTATTG | 0.14
65 | GTTCACACGTGGGGCA | 0.02
66 | TCTAGCACGTGTGGGG | 0.02
67 | GATATCACGTGGATTT | 0.19
68 | TAGATCACGTGTTGTT | 0.22
69 | AATATCACGTGATTAG | 0.25

Row | Sequence | relative binding free energy [kcal/mol]
70 | GGGTACACGTGTACGG | 0.1
71 | CCGTTCACGTGTGGTA | 0.3
72 | GTTGGCACGTGAGGAC | 0.18
73 | CCAGGCACGTGAGGGT | -0.02
74 | TAGGACACGTGGGTAT | -0.05
75 | TGGAACACGTGGAGTT | 0.03
76 | TGGAACACGTGGTTCG | 0.06
77 | GTTAGCACGTGGTGTA | -0.12
78 | GGGTTCACGTGGCTTC | 0.26
79 | GGGCACACGTGTGCGT | 0.1
80 | CATATCACGTGTGTGT | 0.07
81 | GATGGCACGTGATGTA | 0.12
82 | AGTAGCACGTGTAATA | -0.01
83 | AGGTTCACGTGAGGTA | 0.38
84 | ATGGGCACGTGGACTA | -0.1
85 | TGATGCACGTGTGGCT | -0.02
86 | GACATCACGTGTTTGT | 0.1
87 | GCGTGCACGTGGTTGC | -0.06
88 | CCCGTCACGTGGGGGT | -0.06
89 | TGCTTCACGTGTCGTA | 0.37
90 | AGGTGCACGTGTTAAG | 0.04
91 | TCGAACACGTGAGGGG | 0.21
92 | TGCGGCACGTGATAGT | -0.16

Row | Sequence | relative binding free energy [kcal/mol]
93 | ACGGTCACGTGTGTTG | 0.08
94 | CGGGTCACGTGGGGTC | 0.01
95 | TGAGGCACGTGTTTGT | -0.21
96 | GAGGACACGTGACGGT | 0.26
97 | GTTCTCACGTGGTTGA | 0.22
98 | GAGGGCACGTGATGTC | 0.1
99 | TGATACACGTGAGTAT | 0.12
100 | GGTGTCACGTGGTTAA | 0.13
101 | TTCCTCACGTGGGATG | 0.18
102 | TTGTTCACGTGGTCTC | 0.16
103 | ATTTTCACGTGGTAGT | 0.22
104 | ATGGTCACGTGGAATG | 0.22
105 | TGTATCACGTGGTGTC | 0.04
106 | ATCAGCACGTGTGTAT | -0.03
107 | AGGGACACGTGCTGGC | 0.04
108 | TCGAGCACGTGAAGTT | 0.41
109 | AGTAGCACGTGCATGG | -0.1
110 | CTAGCCACGTGAGGGT | 0.23
111 | TAGTTCACGTGGTTCG | 0.2
112 | ATTGACACGTGTTTTC | -0.04
113 | TATGGCACGTGAGGAT | 0
114 | TGCGCCACGTGGTAGT | -0.19
115 | TGGGCCACGTGTTATA | -0.06

Reference: the BET-seq Pho4 binding data (Le et al. 2018)
